{"source": "PubChem BioAssay AID651820", "about": "(National Center for Advancing Translational Sciences (NCATS), 2012)", "note": "In all, about 340,000 compounds went through this assay and about 12,000 (3.5%) were called active. The inconclusive results got no clear call from the source; some entries with a clear call stand among them for comparison. Calls follow the shape of the dose curve; as a rule, active = well fitted inhibition curve with a large enough effect; inconclusive = small, poorly fitted or top-dose-only effect, or another doubt; inactive = no such curve, though single readings can be large or run the other way. Potencies of inconclusive entries are left out as doubtful fits. % is scaled to controls: 0 for no effect and ±100 for the full control effect; potency is read from the fitted curve at half-maximal effect; tags tell the direction and shape of the fitted curve."}
{"test": "qHTS Assay for Inhibitors of Hepatitis C Virus (HCV)", "details": "Huh7.5.1 HCVcc-Cre (HCVcc is cell-culture hepatitis C virus) infection, luciferase reporter, 44 h; activity change, negative = inhibition: at 41.8 µM (top of the series) unless noted", "method_in_brief": "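Whole-lifecycle infectious HCVcc-Cre system; cells 1,000/well, compound then virus (~0.5 moi) added 4 h after plating, 44 h culture. Luciferase read 15 sec following 15 min substrate incubation, room temp.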"}
{"smiles": "COc1ccc(NC(=O)c2ccc(N3C(=O)C4CC=C(C)CC4C3=O)cc2)c(OC)c1", "note": "(centres undefined)", "Potency": "inconclusive [inhibitor, partial curve]"}
{"smiles": "CCCCCCCn1c(=O)c(C(=O)OC)c(N)c2ccccc21", "Potency": "inconclusive [inhibitor, single point]"}
{"smiles": "Cc1ccc(S(=O)(=O)NCCC(=O)OCc2ccc([N+](=O)[O-])cc2)cc1C", "Potency": "inactive"}
{"smiles": "CCn1c(SCC(=O)Nc2nc(-c3ccc(C)cc3)cs2)nnc1-c1ccccc1O", "Potency": "active: 6.31 µM"}
{"smiles": "O=C(Nc1cc2c(cc1C(=O)O)OCCCO2)c1ccc(C(F)(F)F)cc1", "Potency": "inactive"}
{"smiles": "C/C(Cn1nnc([N+](=O)[O-])n1)=N\\NC(=O)c1cccc(Cl)c1", "Potency": "inconclusive [inhibitor, partial curve, poor fit]"}
{"smiles": "CN1CCN(C2=Cc3ccccc3Sc3cc(F)c(F)cc32)CC1", "Potency": "active: 11.2 µM"}
{"smiles": "O=C(N/N=C/c1cc(Br)cc(Br)c1O)c1cccc(N2CCCC2=O)c1", "Potency": "inconclusive [inhibitor, single point]"}
{"smiles": "O=C(CCc1ccccc1)NNC(=O)c1ccccn1", "Potency": "inconclusive [inhibitor, single point]"}
{"smiles": "Cc1nnnn1/C(=C\\c1ccccc1)C(=O)OCC(=O)N1CC2(C)CC1CC(C)(C)C2", "note": "(centres undefined)", "Potency": "inconclusive [inhibitor, full curve, poor fit]"}
{"smiles": "COc1ccc(NC(=O)COC(=O)c2cc([N+](=O)[O-])ccc2N2CCOCC2)cc1", "Potency": "inconclusive [inhibitor, partial curve]"}
{"smiles": "O=C1N(Cc2cccnc2)C[C@@H]2C[C@@H](c3ccccc3C#Cc3ccccc3)N3CCC[C@@]123", "Potency": "inconclusive [inhibitor, single point]"}
{"smiles": "COc1cc(CN2CCN(S(=O)(=O)c3ccc(F)cc3)CC2)cc(OC)c1OC", "Potency": "inactive"}
{"smiles": "Cc1ccc(C(=O)NCC(=O)OCC(=O)Nc2ccc3[nH]c(=O)[nH]c3c2)cc1", "Potency": "inactive"}
{"smiles": "COc1ccccc1NS(=O)(=O)c1cc(NC(=O)c2ccc(Cl)nc2)ccc1Cl", "Potency": "active: 7.08 µM"}
{"smiles": "O=C(NCCc1cccs1)C(c1ccccc1)c1ccccc1", "Potency": "inactive"}
{"smiles": "COc1cccc(N=c2oc3cc(O)ccc3cc2C(=O)NCC2CCCO2)c1", "note": "(centres undefined)", "Potency": "inconclusive [inhibitor, partial curve]"}
{"smiles": "O=C(c1ccccc1)N1CCN(C2c3cccc4cccc(c34)C2NS(=O)(=O)c2ccccc2)CC1", "note": "(centres undefined)", "Potency": "inconclusive [inhibitor, single point]"}
{"smiles": "N#C/C=C/C(=C\\Nc1ccc(Cl)cc1)S(=O)(=O)c1ccccc1", "Potency": "inactive"}
{"smiles": "CC[C@@]1(C(=O)OC)N[C@H](CN(C)S(=O)(=O)c2ccc(C(C)(C)C)cc2)[C@@H]2C(=O)N(C)C(=O)[C@@H]21", "Potency": "inconclusive [inhibitor, full curve]"}
{"smiles": "C=CCn1c(C)cc(C(=O)CSc2nc(N)cc(N)n2)c1C", "Potency": "inconclusive [inhibitor, partial curve]"}
{"smiles": "O=C(CCl)Oc1ccc2occ(C(=O)c3cccs3)c2c1", "Potency": "inactive"}
{"smiles": "Cc1csc(SCC(=O)Nc2ccc(Cl)cn2)n1", "Potency": "inconclusive [inhibitor, single point]"}
{"smiles": "CCOCCCNC(=S)NC1CC2CCC(C1)N2Cc1ccccc1", "note": "(centres undefined)", "Potency": "inconclusive [inhibitor, single point]"}
{"smiles": "CCCCOc1ccc(N(CC(=O)NCc2ccccc2)C(=O)c2csnn2)cc1", "Potency": "inconclusive [inhibitor, single point]"}
{"smiles": "O=C(CN1CCCC1=O)NC1(C(F)(F)F)NC(=O)N(Cc2ccccc2)C1=O", "note": "(centres undefined)", "Potency": "inconclusive [inhibitor, single point]"}
{"smiles": "COc1ccc(CC(=O)N2CCc3cc(OC)c(OC)cc3C2)cc1", "Potency": "inactive"}
{"smiles": "CN(C)CCN(C)Cc1c2ccccc2c(CN(C)CCN(C)C)c2ccccc12", "Potency": "active: 3.98 µM"}
{"smiles": "CC(=O)N(C1CC(C)C(C#N)(C#N)C1(C#N)C#N)N(C)C", "note": "(centres undefined)", "Potency": "active: 6.31 µM"}
{"smiles": "NS(=O)(=O)c1ccc(N2N=C(c3ccccc3)CC2c2ccccc2Cl)cc1", "note": "(centres undefined)", "Potency": "active: 31.6 µM"}
{"smiles": "CC(C)NC(=O)c1cc(-c2cccs2)on1", "Potency": "inactive"}
{"smiles": "Cc1cc(NC(=O)CSc2cn(CC(=O)N(C(C)C)C(C)C)c3ccccc23)no1", "Potency": "inconclusive [inhibitor, partial curve]"}
{"smiles": "CCOc1cccc2sc(N(CCCN(C)C)C(=O)c3ccc(C(=O)c4ccccc4)cc3)nc12", "Potency": "inconclusive [inhibitor, partial curve]"}
{"smiles": "Cc1cc(C)n2nc(N)c(N=Nc3ccccc3)c2n1", "Potency": "inactive"}
{"smiles": "Cc1ccc(Cn2c(C(=O)NCCCN3CCOCC3)cc3sccc32)cc1", "Potency": "inconclusive [inhibitor, partial curve]"}
{"smiles": "COc1ccc(/C=N/Nc2nc(-c3ccc(Cl)cc3)cc(C(F)(F)F)n2)cc1OC", "Potency": "inconclusive [inhibitor, partial curve]"}
{"smiles": "CC/C(=C\\c1ccc(N(C)C)cc1)c1ccncc1", "Potency": "inconclusive [inhibitor, single point]"}
{"smiles": "COc1ccc(Nc2nnc(SC(C(=O)Nc3cc(C)ccc3C)c3ccccc3)s2)cc1", "note": "(centres undefined)", "Potency": "inconclusive [inhibitor, single point]"}
{"smiles": "CC(/C=N/NC(=O)c1cc(C(C)(C)C)[nH]n1)=C\\c1ccccc1", "Potency": "active: 14.1 µM"}
{"smiles": "C/C(=C\\C(=O)c1ccc(Br)cc1)Nc1cccc(Cl)c1", "Potency": "inconclusive [inhibitor, single point]"}
{"smiles": "O=C(CCN1CCOCC1)NCc1ccccc1", "Potency": "inactive"}
{"smiles": "Cc1cc(C)c2nc(NC(=O)CN3C(=O)NC4(CCCC4)C3=O)sc2c1", "Potency": "inconclusive [inhibitor, single point]"}
{"smiles": "COc1ccc(NC(=O)c2nnn(CC(=O)Nc3ccc4c(c3)OCO4)c2N)cc1OC", "Potency": "inconclusive [inhibitor, partial curve]"}
{"smiles": "COc1ccc2[nH]c3c(=O)n(CCCCC(=O)N4CCCC4)c(=S)[nH]c3c2c1", "Potency": "inconclusive [inhibitor, partial curve]"}
{"smiles": "CCOc1cccc(/C=N/NC(=O)c2cc(-c3cccn3C)n[nH]2)c1O", "Potency": "active: 11.2 µM"}
{"smiles": "CCOC(=O)/C=c1\\s/c(=C\\c2ccc(-c3ccccc3)cc2)c(=O)n1CC(=O)NCc1ccc2c(c1)OCO2", "Potency": "inactive"}
{"smiles": "Cc1ccc2cc3c(N)c(C(=O)N4CCOCC4)sc3nc2c1", "Potency": "inactive"}
{"smiles": "COc1ccc(C(CNC(=O)c2cccc(S(=O)(=O)Nc3ccc(F)cc3)c2)N2CCCC2)cc1", "note": "(centres undefined)", "Potency": "inactive"}
{"smiles": "O=C(O)/C=C/C(=O)N(CC1CCCO1)C1CC(=O)N(c2c(Cl)cccc2Cl)C1=O", "note": "(centres undefined)", "Potency": "inconclusive [inhibitor, partial curve]"}
{"smiles": "Cc1nc(NCCc2ccccc2)c2oc3ccccc3c2n1", "Potency": "active: 10 µM"}
{"smiles": "CC(C)(C)C(=O)CN1C(=O)NC(c2ccccc2)(c2ccccc2)C1=O", "Potency": "inactive"}
{"smiles": "CN(C(=O)COC(=O)c1ccccc1C(=O)N1CCN(c2ccccc2)CC1)c1ccccc1", "Potency": "inactive"}
{"smiles": "CCCCc1nc(NCCO)c(C#N)c2c1CCCC2", "Potency": "inconclusive [inhibitor, partial curve]"}
{"smiles": "COc1ccc(C(=O)/C=C/NCc2ccc(C)cc2)cc1", "Potency": "inactive"}
{"smiles": "FC(F)Oc1ccc(NC(=S)NCc2ccccc2)cc1Cl", "Potency": "active: 12.6 µM"}
{"smiles": "Cc1nn2c(-c3ccc(Cl)cc3)nnc2s1", "Potency": "inactive"}
{"smiles": "Cc1cccc(/C=C/C(=O)c2ccc([N+](=O)[O-])o2)c1", "Potency": "active: 0.631 µM"}
{"smiles": "O=C(NC1CCCCC1)C(c1ccc(F)cc1)N(C(=O)c1cccs1)c1ccc2c(c1)OCO2", "note": "(centres undefined)", "Potency": "inactive"}
{"smiles": "CCOC(=O)[C@H]1[C@H]2COc3ccc(Cl)cc3[C@@H]2N2C(=O)[C@H](C)NC(=O)[C@@]12C", "Potency": "inconclusive [inhibitor, single point]"}
{"smiles": "CN1CCN(C2CCN(c3ccc(Nc4nnc(Cl)c(Nc5ccccc5S(C)(=O)=O)n4)c(OC(CF)CF)c3)CC2)CC1", "Potency": "active: 11.2 µM"}
{"smiles": "COc1cc(C(=O)Nc2ccc(S(=O)(=O)N3CCc4ccccc43)cc2)cc(OC)c1OC", "Potency": "active: 14.1 µM"}
{"smiles": "CCc1cc2c(=O)n(Cc3ccco3)c(SCC(=O)N3CCCc4ccccc43)nc2s1", "Potency": "active: 10 µM"}
{"smiles": "Cc1ccc(CC(=O)Nc2ccc(C(=O)N3CCOCC3)cc2)cc1", "Potency": "inactive"}
{"smiles": "CC(C)(C)NC(=O)COC(=O)c1ccccc1OCC(=O)Nc1ccc(Br)cc1", "Potency": "inactive"}
{"smiles": "Cc1oc(-c2ccc(Cl)cc2)nc1CN1CCCC(C(=O)NCc2ccco2)C1", "note": "(centres undefined)", "Potency": "active: 12.6 µM"}
{"smiles": "CCCN(CCO)Cc1ccc(F)c(Br)c1", "Potency": "inconclusive [inhibitor, single point]"}
{"smiles": "COc1cccc(-c2cc3nc(-c4ccccc4)cc(N4CCCC(O)C4)n3n2)c1", "note": "(centres undefined)", "Potency": "active: 3.98 µM"}
{"smiles": "Cc1ccc(C(=O)NCCc2nnc3ccc(SCC(=O)Nc4ccccc4C)nn23)cc1", "Potency": "inactive"}
{"smiles": "Cc1cc(C)cc(NC(=O)c2cccc(NC(=O)c3ccco3)c2)c1", "Potency": "inconclusive [inhibitor, single point]"}
{"smiles": "O=S(=O)(c1ccccc1)N1CCCC1c1nc2ccccc2s1", "note": "(centres undefined)", "Potency": "inconclusive [inhibitor, single point]"}
{"smiles": "CCOC(=O)c1cnc(SCc2cccc(C)c2)nc1N", "Potency": "inconclusive [inhibitor, single point]"}
{"smiles": "Cc1ccccc1NC(NC(=O)c1cccs1)C(Cl)(Cl)Cl", "note": "(centres undefined)", "Potency": "inactive"}
{"smiles": "C/C(Cn1nnc([N+](=O)[O-])n1)=N\\NC(=O)c1ccc(C)cc1", "activity change, negative = inhibition": "inconclusive: -40.8% [inhibitor]"}
{"smiles": "COc1ccccc1CCC(=O)Nc1ccc2c(c1)CN(CCCn1cccn1)CC2", "Potency": "inactive"}
